Test results from PubChem BioAssay (NCATS).
The inconclusive results got no clear call from the source; some entries with a clear call stand among them for comparison. For some of these results: Potencies of inconclusive entries are doubtful fits and often do not repeat. Activity calls are given as the source filed them. Unless noted, the call rests on the fitted dose curve; in most records, active means well fitted curve in the direction sought with a large enough effect; inconclusive means small, poorly fitted or top-dose-only effect, or another doubt; inactive means no such curve, though single readings can be large; an effect the other way counts as inactive or inconclusive.

What was measured:
[1] = target: Luciferin 4-monooxygenase (Photinus pyralis) (UniProt P08659); assay: Biochemical firefly luciferase enzyme assay for NPC (AID 624030); further: potency means the concentration at half of the fitted maximal effect; nearly all actives have a fitted effect of over 70% in size
In short: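 Direct inhibition of firefly luciferase enzyme (10 nM final, 50 mM Tris Acetate) assessed by luminescence within 5 minutes. Percent activity scaled between DMSO and PTC124 positive control, with concentration-effect curves classified by fit quality and response.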

C2A = assay: qHTS profiling for inhibitors of Plasmodium falciparum proliferation (AID 504749); further: nearly all actives have a fitted effect of over 60% in size; settings: P. falciparum in erythrocytes, SYBR Green DNA, 72 h; series mostly up to 28.7 µM
In short: (§1)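 Three-day growth assay of blood-stage parasites in erythrocytes (0.3% parasitemia, 2.5% hematocrit) at 37 C, 5% CO2, quantified by SYBR Green DNA staining after overnight detergent lysis.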

CP247 = assay: as above; settings: P. falciparum in erythrocytes, SYBR Green DNA, 72 h; series mostly up to 28.7 µM
In short: as §1

[2] = qHTS Assay for Identification of Small Molecule Agonists for NFkB Signaling Pathway (AID 928; calls by dose curve); settings: NFkB beta-lactamase reporter cells, blue/green ratio
In short: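 ME-180 NFkB-bla cells carry a beta-lactamase reporter under an NFkB response element. Compound plus 10 pM TNF alpha (final) was applied for 5 hrs at 37 C. After 2 hrs with LiveBLAzer substrate, 460/530 nm emission was read at 405 nm excitation.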

[3] = target: Methanococcus maripaludis chaperonin (MmCpn) (UniProt Q6LX38); assay: High-Throughput Screening for Modulators of Cytosolic Chaperonin Activity: MmCpn Primary Screen (AID 488978); further: potency means the concentration at half of the fitted maximal effect
In short: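 Steps: chaperonin 50 nM final; add compound, 5 min RT; start with ATP, 30 uM final; hold 10 min at 37C; add ADP Transcreener HTRF reagent, 5 min; read ex 320, em 590 and 665 nm.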

[4] = A High-Content qHTS Against Drug Library for the Identification of Small Molecules that Inhibit DYT1 Early Onset Primary Dystonia-Associated Cell Pathology (AID 1645839; calls by dose curve; further: potency means the concentration at half of the fitted maximal effect)
In short: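 In this high-content image screen, delE TorsinA mislocalization in inducible Flp-In 293 cells is scored as %pathology, with cell count serving as the counterscreen. Compound exposure lasts 48 h under tetracycline induction in reduced-serum medium.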

[5] = system: Zika virus NS2B-NS3 protease (linked construct); assay: Confirmatory screen NINDS AMC qHTS for Zika virus inhibitors (AID 1347152); further: nearly all actives have a fitted effect of over 70% in size; further: potency means the concentration at half of the fitted maximal effect
In short: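 Enzyme (1 nM, linked construct) was preincubated with compound for 15 minutes at room temperature in 10 mM Tris-HCl pH 8.0 with 0.01% Tween 20. Bz-Nle-Lys-Arg-Arg-AMC was then added to 10 microM, and AMC fluorescence was recorded immediately and after 15 minutes.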

[6] = qHTS for Antimalaria activity screened against the NCATS CANVASS Library (AID 1347380); further: potency means the concentration at half of the fitted maximal effect; nearly all actives have a fitted effect of over 40% in size
In short: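 P. falciparum Dd2-infected RBCs (2.5% hematocrit final, 0.3% parasitemia) in Albumax II RPMI were exposed to compounds in an 11-point qHTS series for 72 h at 37C under 5% O2/5% CO2, then lysed with SYBR Green.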

[7] = qHTS of pediatric cancer cell lines to identify multiple opportunities for drug repurposing: Primary screen for BT-37 cells (AID 1347094); further: potency means the concentration at half of the fitted maximal effect
In short: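 CRCs from 8- or 11-point titrations (lowest final 0.59 nM NPC, 0.78 nM MIPE). Cell viability: CellTiter-Glo after 48 h incubation, 15 min room-temperature development, luminescence imaging.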

[8] = qHTS of pediatric cancer cell lines to identify multiple opportunities for drug repurposing: Primary screen for Rh30 cells (AID 1347107); further: potency means the concentration at half of the fitted maximal effect; nearly all actives have a fitted effect of over 75% in size
In short: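 Cells (500-1,000/well) rested 5 h, then received compounds for 48 h; metabolically active cells were measured by CellTiter-Glo luminescence. Final concentrations spanned up to 46 µM (MIPE, 11-point) or 0.59 nM-46 µM (NPC, 8-point) in primary screens, 11-point in follow-ups.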

[9] = Quantitative High-Throughput drug screen in 47 multiple myeloma cell lines against the NCATS MIPE library collection: Delta47_JCRB cell viability assay (AID 1918925; further: nearly all actives have a fitted effect of over 45% in size; further: potency means the concentration at half of the fitted maximal effect)
In short: (§2)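 Viability readout: CellTiter-Glo luminescence following 5 min room-temperature incubation with reagent. Prior exposure: 48 h, 37C, humidified 5% CO2, 500 cells per well.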

[10] = Quantitative High-Throughput drug screen in 47 multiple myeloma cell lines against the NCATS MIPE library collection: Karpas417_ECACC cell viability assay (AID 1918961); settings: Karpas417 myeloma viability, CellTiter-Glo ATP luminescence, 48 h; viability (% of DMSO): at 45.8 µM (top of the series); further: potency means the concentration at half of the fitted maximal effect
In short: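 We plated 500 myeloma cells per well, pinned in MIPE 4.0 compounds, and incubated for 48 hours at 37C. ATP was then quantified with CellTiter-Glo, with DMSO and media-only wells defining 100% and 0%.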

[11] = Quantitative High-Throughput drug screen in 47 multiple myeloma cell lines against the NCATS MIPE library collection: JIM1_ECACC cell viability assay (AID 1918964; further: potency means the concentration at half of the fitted maximal effect); settings: JIM1 myeloma viability, CellTiter-Glo ATP luminescence, 48 h; viability (% of DMSO): at 45.8 µM (top of the series)
In short: as §2

[12] = Quantitative High-Throughput drug screen in 47 multiple myeloma cell lines against the NCATS MIPE library collection: KMS20_JCRB cell viability assay (AID 1918973); settings: CellTiter-Glo ATP, 48 h; viability (% of DMSO): at 45.8 µM (top of the series); further: potency means the concentration at half of the fitted maximal effect; nearly all actives have a fitted effect of over 45% in size
In short: as §2

[13] = Quantitative High-Throughput drug screen in 47 multiple myeloma cell lines against the NCATS MIPE library collection: KMS21BM_JCRB cell viability assay (AID 1918974); further: potency means the concentration at half of the fitted maximal effect
In short: as §2

[14] = Quantitative High-Throughput drug screen in 47 multiple myeloma cell lines against the NCATS MIPE library collection: MMM1_PLB cell viability assay (AID 1918976); further: potency means the concentration at half of the fitted maximal effect; nearly all actives have a fitted effect of over 35% in size
In short: (§3)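 Plated at 500 cells per well, myeloma lines received MIPE 4.0 compounds by pin tool. Following 48 h culture at 37 °C, CellTiter-Glo luminescence gave viability relative to DMSO and media-only controls.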

[15] = Quantitative High-Throughput drug screen in 47 multiple myeloma cell lines against the NCATS MIPE library collection: MOLP8_DSMZ cell viability assay (AID 1918977); settings: MOLP8 myeloma viability, CellTiter-Glo ATP luminescence, 48 h; viability (% of control): at 45.8 µM (top of the series); further: nearly all actives have a fitted effect of over 45% in size; further: potency means the concentration at half of the fitted maximal effect
In short: as §3

[16] = Quantitative High-Throughput drug screen in 47 multiple myeloma cell lines against the NCATS MIPE library collection: OCIMY1_PLB cell viability assay (AID 1918979); further: nearly all actives have a fitted effect of over 35% in size; further: potency means the concentration at half of the fitted maximal effect
In short: as §3

[17] = Quantitative High-Throughput drug screen in 47 multiple myeloma cell lines against the NCATS MIPE library collection: L363_DSMZ cell viability assay (AID 1918984); settings: L363 myeloma viability, CellTiter-Glo ATP luminescence, 48 h; viability (% of control): at 45.8 µM (top of the series); further: nearly all actives have a fitted effect of over 40% in size; further: potency means the concentration at half of the fitted maximal effect
In short: as §3

[18] = Quantitative High-Throughput drug screen in 47 multiple myeloma cell lines against the NCATS MIPE library collection: UTMC2_PLB cell viability assay (AID 1919868); settings: CellTiter-Glo ATP luminescence, 48 h; series mostly up to 45.8 µM; further: potency means the concentration at half of the fitted maximal effect; nearly all actives have a fitted effect of over 55% in size
In short: as §3

Measured: Potency
Tags describe the fitted curve by direction and shape.

Chain of UniProt P08659 (P08659 whole entry, looked up): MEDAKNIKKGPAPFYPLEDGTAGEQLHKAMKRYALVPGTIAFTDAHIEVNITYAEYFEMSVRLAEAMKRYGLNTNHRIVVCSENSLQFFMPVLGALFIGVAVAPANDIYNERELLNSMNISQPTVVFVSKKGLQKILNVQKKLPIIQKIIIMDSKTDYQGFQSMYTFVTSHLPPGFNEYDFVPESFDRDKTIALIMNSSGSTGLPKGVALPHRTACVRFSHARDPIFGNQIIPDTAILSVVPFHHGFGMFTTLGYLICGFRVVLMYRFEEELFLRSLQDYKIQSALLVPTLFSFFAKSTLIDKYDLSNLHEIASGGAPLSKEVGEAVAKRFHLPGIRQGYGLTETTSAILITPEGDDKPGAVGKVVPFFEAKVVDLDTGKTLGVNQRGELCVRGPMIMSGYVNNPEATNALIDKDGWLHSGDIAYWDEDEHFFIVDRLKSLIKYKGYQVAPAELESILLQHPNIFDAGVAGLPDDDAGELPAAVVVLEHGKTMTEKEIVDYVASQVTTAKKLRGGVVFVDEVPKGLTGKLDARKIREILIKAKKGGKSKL

O=C(O)c1cc2cc(Cc3cccnc3)ccc2o1
inconclusive: [1] 32200 nM [inhibitor, partial curve]
inactive: C2A | CP247

Nc1ccc(-c2nc3ccc(-c4nc5ccc(N)cc5[nH]4)cc3[nH]2)cc1
inconclusive: [2] 1120 nM [inhibitor, full curve] | [3] 100000 nM [inhibitor, single point]

O=C(CS(=O)Cc1ccco1)NC/C=C\COc1cc(CN2CCCCC2)ccn1 (centres undefined)
inconclusive: [4] 35500 nM [inhibitor, single point]

Nc1nc2ccc(Cl)cc2c2nc(-c3ccco3)nn12
inactive: [5]

O=C(O)Cc1c[nH]c2ccc(O)cc12
inconclusive: [6] 9.7 nM [cytotoxic, full curve]

C=C(C)[C@@H]1CC[C@]2(C(=O)O)CC[C@]3(C)[C@H](CC[C@@H]4[C@@]5(C)CC[C@H](O)C(C)(C)[C@@H]5CC[C@]43C)[C@@H]12
inactive: [7] | [9] | [11] | [15] | [16] | [17]
inconclusive: [8] 1050 nM [cytotoxic, partial curve] | [6] 66.6 nM [cytotoxic, partial curve, poor fit] | [10] 33200 nM [rising, single point] | [12] 16.6 nM [cytotoxic, full curve, poor fit] | [13] 23500 nM [rising, partial curve] | [14] 2960 nM [cytotoxic, full curve, poor fit] | [18] 296 nM [cytotoxic, full curve, poor fit]

CCCc1c(OCCCOc2ccc(OCC(=O)O)cc2)ccc(C(C)=O)c1O
inconclusive: [5] 24100 nM [inhibitor, partial curve]

C[C@@H]1O[C@@H](O[C@H]2CC[C@@]3(C)[C@H](CC[C@@H]4[C@H]3C[C@@H](O)[C@]3(C)[C@@H](C5=CC(=O)OC5)CC[C@]43O)C2)C[C@H](O)[C@@H]1O[C@H]1C[C@H](O)[C@H](O[C@H]2C[C@H](O)[C@@H](O)[C@@H](C)O2)[C@H](C)O1 (stereo in doubt)
active: [7] 112 nM | [9] 241 nM | [10] 152 nM | [11] 67.9 nM | [12] 270 nM | [13] 215 nM | [14] 171 nM | [15] 152 nM | [16] 241 nM | [17] 171 nM | [18] 95.9 nM
inconclusive: [8] 605 nM [cytotoxic, full curve]
